From the supplement of paper PMC9174493
The list shows a part of the results. Single values of this set are uncertain. Values with irradiation are relative to irradiated vehicle.

Legend:
A549-Dual [1] = assay: NF-kB reporter (SEAP) activity, viability-corrected, relative to vehicle (fold change vs vehicle); higher = more activation of STING-IRF / NF-kB immune response reporter
A549-Dual [2] = assay: ISRE reporter (Lucia luciferase) activity, viability-corrected, relative to vehicle (fold change vs vehicle); higher = more activation of STING-IRF / NF-kB immune response reporter
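Wherever NF-kB reporter (SEAP) activity, viability-corrected, relative to vehicle is given: viability correction based on the alamar blue assay, with concentrations leaving 10% survival or less dropped.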

| SMILES | NF-kB reporter (A549-Dual [1]; 0.1 µM, irradiation: 8 Gy/4 fr) | NF-kB reporter (A549-Dual [1]; 0.1 µM, irradiation: none) | NF-kB reporter (A549-Dual [1]; 0.3 µM, irradiation: 8 Gy/4 fr) | NF-kB reporter (A549-Dual [1]; 0.3 µM, irradiation: none) | NF-kB reporter (A549-Dual [1]; 1 µM, irradiation: 8 Gy/4 fr) | NF-kB reporter (A549-Dual [1]; 1 µM, irradiation: none) | NF-kB reporter (A549-Dual [1]; 3 µM, irradiation: 8 Gy/4 fr) | NF-kB reporter (A549-Dual [1]; 3 µM, irradiation: none) | NF-kB reporter (A549-Dual [1]; 10 µM, irradiation: 8 Gy/4 fr) | NF-kB reporter (A549-Dual [1]; 10 µM, irradiation: none) | ISRE reporter (A549-Dual [2]; 0.1 µM, irradiation: 8 Gy/4 fr) | ISRE reporter (A549-Dual [2]; 0.1 µM, irradiation: none) | ISRE reporter (A549-Dual [2]; 0.3 µM, irradiation: 8 Gy/4 fr) | ISRE reporter (A549-Dual [2]; 0.3 µM, irradiation: none) | ISRE reporter (A549-Dual [2]; 1 µM, irradiation: 8 Gy/4 fr) | ISRE reporter (A549-Dual [2]; 1 µM, irradiation: none) | ISRE reporter (A549-Dual [2]; 3 µM, irradiation: 8 Gy/4 fr) | ISRE reporter (A549-Dual [2]; 3 µM, irradiation: none) | ISRE reporter (A549-Dual [2]; 10 µM, irradiation: 8 Gy/4 fr) | ISRE reporter (A549-Dual [2]; 10 µM, irradiation: none) |
| --- | --- | --- | --- | --- | --- | --- | --- | --- | --- | --- | --- | --- | --- | --- | --- | --- | --- | --- | --- | --- |
| Cc1nc(NC(=O)N2CCCC2C(N)=O)sc1-c1ccnc(C(C)(C)C(F)(F)F)c1 (stereo not given) [Alpelisib (BYL719)] | 1.16 | 1.2 | 0.896 | 1.33 | 0.842 | 1.6 | 0.854 | 1.22 | 0.665 | 0.808 | 0.988 | 1.24 | 0.862 | 1.04 | 0.863 | 0.991 | 0.522 | 0.616 | 0.482 | 0.521 |
| CNC(=O)c1cc(Oc2ccc(NC(=O)Nc3ccc(Cl)c(C(F)(F)F)c3)c(F)c2)ccn1.O [Regorafenib Monohydrate] | 1.04 | 1.18 | 0.891 | 0.898 | 0.849 | 0.924 | 0.811 | 1.12 | 0.742 | 1.26 | 0.972 | 1.18 | 0.955 | 0.814 | 0.662 | 0.735 | 0.333 | 0.416 | 0.222 | 0.538 |
| O=c1[nH]cc(F)c(=O)[nH]1 [Fluorouracil (5-Fluoracil, 5-FU)] | 1.19 | 1.06 | 1.54 | 1.01 | 1.1 | 1.16 | 1.27 | 1.11 | 1.04 | 1.14 | 1.19 | 1.1 | 1.76 | 1.11 | 1.01 | 0.976 | 0.906 | 1.71 | 0.606 | 1.86 |
| COc1ccccc1N1CCN(CC(O)COc2cccc3ccccc23)CC1.Cl.Cl (stereo not given) [Naftopidil DiHCl] | 1.15 | 1.22 | 1.45 | 1.18 | 1.06 | 1.09 | 1.18 | 0.93 | 0.842 | 0.955 | 0.938 | 0.951 | 1.4 | 1.13 | 0.953 | 0.879 | 1.12 | 0.772 | 0.972 | 1.05 |
| COc1cc2c3cc1Oc1c(OC)c(OC)cc4c1C(Cc1ccc(O)c(c1)Oc1ccc(cc1)CC3N(C)CC2)N(C)CC4 (stereo not given) [Berbamine] | 1.22 | 1.12 | 0.977 | 1.44 | 1.12 | 1.45 | 1.12 | 1.18 | 0.796 | 1.04 | 1.12 | 1.52 | 1.08 | 1.46 | 1.08 | 1.48 | 1.29 | 1.71 | 1.03 | 1.44 |
| CC1CC2C3CCC4=CC(=O)C=CC4(C)C3(Cl)C(O)CC2(C)C1(OC(=O)c1ccco1)C(=O)CCl (stereo not given) [Mometasone furoate] | 0.544 | 0.643 | 0.653 | 0.836 | 0.984 | 0.669 | 0.865 | 0.762 | 0.439 | 0.713 | 0.0592 | 0.21 | 0.0395 | 0.214 | 0.0361 | 0.163 | 0.0427 | 0.287 | 0.0436 | 0.21 |
| CCCCC1(COC(=O)CCC(=O)O)C(=O)N(c2ccccc2)N(c2ccccc2)C1=O [Suxibuzone] | 1.25 | 1.58 | 1.47 | 1.28 | 1.67 | 1.45 | 1.53 | 1.06 | 1.54 | 1.31 | 1.22 | 1.14 | 1.26 | 1.05 | 0.97 | 1.02 | 1.04 | 1.09 | 1.13 | 0.838 |
| COc1ccc(S(=O)(=O)N(C(C)=O)c2ccccc2/C=C/c2cc[n+]([O-])cc2)cc1 | 1.1 | 1.71 | 1.24 | 1.97 | 0.905 | 1.71 | 0.852 | 1.7 | 0.919 | 1.58 | 0.916 | 2.81 | 0.685 | 2.33 | 0.207 | 1.07 | 0.0815 | 0.601 | 0.0917 | 0.51 |
| COc1cc(-c2coc3cc4c(c(OC)c3c2=O)OCO4)cc(OC)c1OC [Irisflorentin] | 1.08 | 0.992 | 1.23 | 0.826 | 1.12 | 0.885 | 1.16 | 0.869 | 0.802 | 1.25 | 1.1 | 0.739 | 1.02 | 0.576 | 0.682 | 0.608 | 0.814 | 0.82 | 0.592 | 0.666 |
| CN1CCC(=C2c3ccccc3C=Cc3ccccc32)CC1.Cl [Cyproheptadine hydrochloride] | 1.03 | 1.01 | 1.11 | 0.884 | 1.17 | 0.828 | 1.21 | 0.89 | 0.71 | 0.866 | 0.879 | 0.893 | 0.929 | 0.826 | 0.939 | 0.865 | 1 | 0.894 | 1.1 | 1.23 |
| CCN(CC)CCNC(=O)c1c(C)[nH]c(/C=C2\C(=O)Nc3ccc(F)cc32)c1C [Sunitinib] | 0.929 | 0.95 | 0.847 | 0.984 | 0.847 | 1.38 | 0.983 | 1.37 | 0.888 | 1.02 | 0.86 | 0.845 | 0.703 | 0.832 | 0.818 | 0.834 | 0.73 | 0.787 | 0.744 | 0.782 |
| CCc1cccc2c3c([nH]c12)C(CC)(CC(=O)O)OCC3 (stereo not given) [Etodolac] | 0.86 | 1.02 | 0.944 | 1.19 | 1.21 | 0.896 | 1.32 | 0.914 | 0.888 | 0.963 | 0.849 | 0.813 | 0.778 | 0.773 | 0.787 | 0.867 | 0.773 | 0.865 | 0.782 | 0.894 |
| O=C(O)c1cc(O)c(O)c(O)c1 [Gallic acid] | 1.05 | 1.09 | 1 | 0.999 | 1.07 | 1.47 | 0.951 | 1.3 | 1.08 | 1.16 | 1.16 | 1.25 | 1.18 | 1.12 | 1.17 | 0.998 | 1.15 | 0.939 | 1.08 | 1.14 |
| COc1cc2ncnc(Nc3ccc(F)c(Cl)c3)c2cc1OCCCN1CCOCC1 [Gefitinib (ZD1839)] | 0.893 | 1.09 | 0.968 | 1.16 | 0.845 | 1.26 | 0.912 | 0.809 | 1.05 | 0.916 | 0.862 | 0.852 | 0.9 | 1.1 | 0.826 | 0.972 | 0.891 | 0.77 | 0.869 | 1.17 |
| CCc1nc(N)nc(N)c1-c1ccc(Cl)cc1 [Pyrimethamine] | 1.25 | 1.65 | 1.1 | 1.68 | 1.35 | 1.32 | 1.71 | 1.59 | 1.01 | 1.8 | 1.13 | 1.57 | 1.12 | 1.44 | 1.15 | 1.13 | 0.986 | 0.807 | 0.134 | 0.828 |
| O=c1oc2cc(O)ccc2s1 [Tioxolone] | 0.771 | 1.12 | 0.806 | 1.06 | 0.891 | 0.953 | 1.08 | 1.03 | 0.752 | 0.933 | 0.896 | 0.934 | 0.812 | 0.76 | 0.615 | 0.79 | 0.814 | 0.941 | 0.571 | 0.69 |
| CC1(C)OC2CC3C4CCC5=CC(=O)C=CC5(C)C4C(O)CC3(C)C2(C(=O)CO)O1 (stereo not given) [Desonide] | 0.658 | 1.14 | 0.826 | 1.13 | 1.02 | 0.905 | 1.25 | 0.76 | 0.939 | 0.74 | 0.0649 | 0.254 | 0.0583 | 0.273 | 0.0495 | 0.264 | 0.0469 | 0.268 | 0.0659 | 0.246 |
| O=C([O-])Cc1ccccc1Nc1c(Cl)cccc1Cl.[Na+] [Diclofenac Sodium] | 1.04 | 1.92 | 1.37 | 2.11 | 1.81 | 1.46 | 1.8 | 1.23 | 1.49 | 0.878 | 1.24 | 1.29 | 1.1 | 1.38 | 1.09 | 1.2 | 1.08 | 1.22 | 1.17 | 0.814 |
| Cl.O=C(OCC(O)CO)c1ccccc1Nc1ccnc2cc(Cl)ccc12 (stereo not given) [Glafenine HCl] | 1.1 | 1.31 | 1.33 | 1.06 | 1.23 | 1.09 | 1.18 | 1.06 | 1.23 | 1.4 | 1.21 | 0.946 | 1.09 | 0.854 | 0.748 | 0.834 | 0.864 | 0.831 | 0.734 | 0.76 |
| NCCc1c[nH]cn1 [Histamine] | 1.11 | 1.28 | 1.22 | 1.19 | 1.23 | 0.983 | 1.55 | 0.973 | 1.04 | 1.03 | 1.05 | 1.17 | 1.04 | 1.15 | 1.06 | 1.19 | 0.98 | 1.22 | 1.24 | 1.07 |
| CC(C)(O)CNc1nc(Nc2ccnc(C(F)(F)F)c2)nc(-c2cccc(C(F)(F)F)n2)n1 [Enasidenib (AG-221)] | 0.921 | 0.899 | 0.835 | 1.18 | 0.904 | 1.5 | 0.838 | 1.08 | 0.718 | 0.886 | 0.918 | 1.12 | 0.801 | 1.08 | 0.803 | 1.32 | 0.822 | 1.01 | 0.822 | 0.859 |
| CN(Cc1cnc2nc(N)nc(N)c2n1)c1ccc(C(=O)NC(CCC(=O)O)C(=O)O)cc1 (stereo not given) [Methotrexate] | 1.13 | 1.25 | 0.983 | 1.56 | 0.823 | 2 | 1.02 | 1.74 | 0.691 | 1.42 | 0.848 | 0.568 | 0.158 | 0.769 | 0.113 | 0.746 | 0.0837 | 0.535 | 0.121 | 0.568 |
| CN1C2=CC(=O)/C(=N\NC(N)=O)C=C2CC1S(=O)(=O)[O-].[Na+] (stereo not given) [Carbazochrome sodium sulfonate (AC-17)] | 1.23 | 1.27 | 1.04 | 1.43 | 1.11 | 1.61 | 1.15 | 1.26 | 1.1 | 0.997 | 1.09 | 1.23 | 1.17 | 1.14 | 1.05 | 1.27 | 1.19 | 0.847 | 1.17 | 0.941 |
| CN(C)C(=O)c1cc2cnc(Nc3ccc(N4CCNCC4)cn3)nc2n1C1CCCC1 [Ribociclib (LEE011)] | 0.936 | 0.905 | 0.8 | 1 | 0.887 | 1.37 | 0.869 | 1.09 | 0.925 | 0.961 | 0.913 | 1.24 | 0.799 | 1.17 | 0.91 | 1.17 | 0.812 | 0.912 | 0.741 | 1.22 |
| CC1CC2C(C(O)CC3(C)C2CCC3(O)C(=O)CO)C2(C)C=CC(=O)C=C12 (stereo not given) [Methylprednisolone] | 0.664 | 1.19 | 0.976 | 1.06 | 1.2 | 0.814 | 1.39 | 0.811 | 0.568 | 1.56 | 0.0851 | 0.556 | 0.154 | 0.341 | 0.0863 | 0.258 | 0.0785 | 0.257 | 0.0669 | 0.212 |
